# Source: PubChem BioAssay AID624296 (National Center for Advancing Translational Sciences (NCATS), 2012)
# The whole screen tested about 350,000 compounds, of which about 9,900 (2.8%) were called active. This list was built around the results that the source calls inconclusive (neither active nor inactive); the mix of calls is not that of the screen. Calls come from the whole dose curve; as a rule, active = well fitted activation curve with a large enough effect; inconclusive = small, poorly fitted or top-dose-only effect; inactive = no such curve, though single readings can be large or run the other way. Potencies of inconclusive entries are left out as doubtful fits.
# Assay: A quantitative high throughput screen for small molecules that induce DNA re-replication in MCF 10a normal breast cells. For activity, positive = re-replication: % of control where 0% means no effect. Note: nearly all actives have a fitted effect of over 50% in size.
# Settings: MCF 10A DNA re-replication, Hoechst nuclear intensity, 48 h; activity, positive = re-replication: at 46.1 µM (top of the series)
# Potency is the fitted concentration of half-maximal effect; tags give direction and shape of the fitted curve.
SMILES,Potency,"activity, positive = re-replication"
CC(=O)c1ccc(-n2c(C)ccc2-c2ccccc2)cc1,"inconclusive [activator, single point]",
Cc1ccc(CCC(=O)NCc2ccccc2)o1,inactive,
CCCn1c(SCC(=O)N2c3ccccc3CC2C)nnc1-c1ccco1 (stereo unspecified),"inconclusive [activator, partial curve, poor fit]",
CN1CCN(C2=Nc3c(Cl)cc(Cl)c4cccc2c34)CC1,inactive,
COc1ccc([C@H]2/C=C\CN(S(C)(=O)=O)[C@@H](C)C(=O)N2Cc2ccc(F)cc2)cc1,inactive,
CC1CCN(C(=S)c2cccc(O)c2)CC1,active: 1.46 µM,
CN1CCN(S(=O)(=O)c2cccc(C(=O)N(C)CC(=O)Nc3ccc(Cl)c(Cl)c3)c2)CC1,"inconclusive [activator, single point]",
CCN(CC)CCNC(=O)c1ccc(NC(=O)c2ccc(COc3ccccc3)cc2)cc1,"inconclusive [activator, partial curve, poor fit]",
CCOc1ccc(-c2cccc(NS(=O)(=O)c3ccc([N+](=O)[O-])cc3)c2)nn1,inactive,
CC(/C=N/NC(=O)c1ccccn1)=C\c1ccco1,"inconclusive [activator, single point]",
O=C(Nc1ccc2c(c1)OCO2)C1CCN(C(=O)CSc2ncnc3ccccc23)CC1,"inconclusive [activator, single point]",
Nn1c(-c2ccccc2)nc2ccccc2c1=O,inactive,
Nc1[nH]c(=O)[nH]c(=O)c1N=Nc1ccccc1Cl,active: 23.1 µM,
Cc1ccc(NCCC(=O)c2cccs2)cc1C,"inconclusive [activator, single point]",
COc1ccc(C(=O)/C(=C/O)N=Nc2ccc(F)cc2)cc1,"inconclusive [activator, partial curve, poor fit]",
CCC(=O)Nc1cc(C(=O)O)ccc1Sc1ccc(C)cc1,"inconclusive [activator, partial curve, poor fit]",
O=C(Cn1c2ccccc2c(=O)c2ccccc21)Nc1cccc(F)c1,active: 11.6 µM,
COc1ccc(NC(=O)CC2C(=O)N(c3ccc(OC)cc3)C(=S)N2NC(=O)c2cccc(F)c2)cc1 (stereo unspecified),"inconclusive [activator, partial curve, poor fit]",
O=c1c2ccccc2[nH]c(=S)n1C1CCCCC1,"inconclusive [activator, partial curve, poor fit]",
Nc1c(C(=O)NCCN2CCOCC2)c2nc3ccccc3nc2n1CCc1ccccc1,active: 1.84 µM,
Cn1cc(CN2CCN(c3ncccn3)CC2)c(-c2cccc(Cl)c2)n1,active: 20.6 µM,
C/C(=N\NC(=O)COc1ccccc1F)c1cc2ccccc2o1,"inconclusive [activator, partial curve, poor fit]",
Cc1[nH]nc(Nc2ccc(C(C)C)cc2)c1[N+](=O)[O-],inactive,
CCn1c(=O)c(C(=O)Nc2ncccc2C)c(O)c2ccccc21,inactive,

SMILES,Potency,"activity, positive = re-replication"
CC(Nc1nc(-c2cccc(Br)c2)cs1)c1nc2cc(Cl)c(N3CCCCC3)cc2n1CCOCCO (stereo unspecified),"inconclusive [activator, single point]",
CCCc1c(NC(=O)Nc2ccc(Cl)cc2Cl)cnn1-c1ccccc1,"inconclusive [activator, single point]",
COc1ccc(CN2CCN(C(=O)c3ccc(S(=O)(=O)NCc4ccco4)cc3)CC2)cc1,"inconclusive [activator, single point]",
O=C(CSc1ccc(-c2ccc(F)cc2)nn1)N1CCCCC1,inactive,
CCc1ccc(CNC(=O)C(=O)NCCc2ccc(OC)c(OC)c2)cc1,inactive,
COc1ccc(S(=O)(=O)NCc2ccncc2)cc1NC(=O)c1ccc(Cl)cc1,inactive,
O=c1c2ccccc2sn1-c1ccccc1,active: 9.2 µM,
Oc1cccc(/C=N/n2c(C3CCCCC3)n[nH]c2=S)c1,inactive,
O=C(c1cc(-c2ccccc2Cl)nc2ccc(Br)cc12)N1CCN(c2ccccn2)CC1,"inconclusive [activator, single point]",
O=C(CCn1[nH]c(=O)c2ccccc2c1=O)OC1CCCCC1,"inconclusive [activator, single point]",
O=C(CCCn1c(=O)c2sccc2n(CC(=O)OCc2ccccc2)c1=O)NCc1ccco1,inactive,
O=C(CCN1CCCCC1)c1ccc2c(c1)OCO2,"inconclusive [activator, single point]",
Cc1ccc(-c2csc(NC(=O)c3ccccc3Cl)c2C(=O)O)cc1,"inconclusive [activator, partial curve, poor fit]",
O=C(NCc1ccccc1Cl)c1ccc2c(c1)OCO2,inactive,
O=C(O)c1ccc(CNCc2cccc(OCc3ccc(F)cc3)c2)cc1,inactive,
COc1ccc(S(=O)(=O)N2CCN(C(=O)c3oc4ccccc4c3C)CC2)cc1,"inconclusive [activator, partial curve, poor fit]",
CN1CCN(C(=O)CCN2C(=O)/C(=C\c3ccccc3F)SC2=S)CC1,active: 23.1 µM,
COc1cccc(CNC(=O)Cn2ccc3cc(S(=O)(=O)N4CCCCCC4)ccc32)c1,inactive,
COc1ccccc1NCC(=O)n1nc(C)cc1C,"inconclusive [activator, full curve, poor fit]",
CC(C)c1ccc(C2(C)NC(=O)N(C(C)C(=O)Nc3ccc(N4CCOCC4)cc3)C2=O)cc1 (stereo unspecified),"inconclusive [activator, single point]",
Cc1ccc(Cl)cc1N1CCN(C(=O)Cc2ccc(-n3c(=O)[nH]c4ccsc4c3=O)cc2)CC1,"inconclusive [activator, single point]",
O=C(CCN1CCN(c2ccccc2)CC1)NNC(=O)c1cccc2ccccc12,inactive,
Cc1ccc(OCC(=O)N2c3ccccc3CC2C)c([N+](=O)[O-])n1 (stereo unspecified),"inconclusive [activator, partial curve, poor fit]",
O=C(CNCc1ccccc1Cl)Nc1ccccc1N1CCCCC1,"inconclusive [activator, partial curve, poor fit]",

SMILES,Potency,"activity, positive = re-replication"
CN(C)CCCOc1ccc2c(c1)Sc1ccccc1CC2=O,"inconclusive [activator, partial curve, poor fit]",
COc1ccccc1NC1=NC(c2ccc(Cl)cc2)N=C(N)N1 (stereo unspecified),"inconclusive [activator, single point]",
COc1ccc(NC(=O)COC(=O)CCCOc2ccc(Cl)cc2Cl)cc1,"inconclusive [activator, partial curve, poor fit]",
CC(=O)c1cn(CC(=O)NCc2cccnc2)c2ccccc12,"inconclusive [activator, partial curve, poor fit]",
Cc1ccc(C(C)C)c(OCC(=O)Nc2ccc(Cl)cn2)c1,"inconclusive [activator, partial curve, poor fit]",
C[C@H](CO)N1C[C@H](C)[C@@H](CN(C)S(C)(=O)=O)Oc2ccc(NS(=O)(=O)c3ccccc3)cc2C1=O,"inconclusive [activator, full curve, poor fit]",
Cc1nc(-n2[nH]c3c(c2=O)CCCC3)[nH]c(=O)c1Cc1ccccc1,active: 20.6 µM,
CCOC(=O)c1ccc(-n2[nH]c(-c3ccccc3)cc2=O)cc1,"inconclusive [activator, single point]",
NC(=O)c1sc2nc3c(c(-c4cccs4)c2c1N)CCCC3,,inconclusive: 66.4% [activator]
Cc1cn([C@H]2C[C@H](O)[C@@H](CO)O2)c(=O)[nH]c1=O,inactive,
CCOc1cc(N2CCOCC2)c(OCC)cc1NC(=O)CN1C(=O)NC2(CCCCC2C)C1=O (stereo unspecified),"inconclusive [activator, partial curve, poor fit]",
Clc1cccc(CSc2ccc(-c3ccco3)nn2)c1,"inconclusive [activator, partial curve, poor fit]",
CC1CCCCN1c1nnc(N)s1 (stereo unspecified),inactive,
O=C1[C@@H]2[C@@H]3C[C@@H]([C@H]4ON=C(c5ccc(Cl)cc5Cl)[C@@H]34)[C@@H]2C(=O)N1C1CCCCC1,"inconclusive [activator, single point]",
Cc1nn(C)cc1-c1n[nH]c(=S)n1-c1ccc(Cl)cc1,inactive,
CC(C)(C)C(=O)NC(=S)Nc1cc(C(F)(F)F)ccc1N1CCOCC1,"inconclusive [activator, single point]",
COc1cc(CN2CCCC(CO)(Cc3ccccc3)C2)ccc1O (stereo unspecified),"inconclusive [activator, single point]",
Cc1cccc2nc(-c3cccnc3)c(NCCC(C)C)n12,active: 20.6 µM,
CS(=O)(=O)N1CCC(Oc2ccccc2C(=O)NCCCc2cccnc2)CC1,inactive,
CC1(C)NC(=O)N(CCC(=O)Nc2cc(C(F)(F)F)ccc2Cl)C1=O,"inconclusive [activator, single point]",
CN1CCN(C(=O)/C(=C/c2cccs2)NC(=O)c2ccco2)CC1,"inconclusive [activator, partial curve, poor fit]",
O=C(NCCCn1ccnc1)c1cc(Cl)cc(Cl)c1,"inconclusive [activator, single point]",
COc1ccc(/C=C/c2nc(S(=O)(=O)c3ccccc3)c(N(C)C)o2)cc1OC,"inconclusive [activator, full curve, poor fit]",
